Measured values as given in PMC4336329 (PLoS ONE, 2015).
Screen size: about 310,000 compounds; about 2,200 (0.71%) showed an effect of 50% or more. The effect is printed as a negative number. The list shows a part of the results.

molecular target: human ether-à-go-go-related gene (hERG) potassium channel (human, UniProt Q12809); assay: primary screen, population patch clamp on CHO cells stably expressing hERG
Sequence (Q12809 whole entry, looked up): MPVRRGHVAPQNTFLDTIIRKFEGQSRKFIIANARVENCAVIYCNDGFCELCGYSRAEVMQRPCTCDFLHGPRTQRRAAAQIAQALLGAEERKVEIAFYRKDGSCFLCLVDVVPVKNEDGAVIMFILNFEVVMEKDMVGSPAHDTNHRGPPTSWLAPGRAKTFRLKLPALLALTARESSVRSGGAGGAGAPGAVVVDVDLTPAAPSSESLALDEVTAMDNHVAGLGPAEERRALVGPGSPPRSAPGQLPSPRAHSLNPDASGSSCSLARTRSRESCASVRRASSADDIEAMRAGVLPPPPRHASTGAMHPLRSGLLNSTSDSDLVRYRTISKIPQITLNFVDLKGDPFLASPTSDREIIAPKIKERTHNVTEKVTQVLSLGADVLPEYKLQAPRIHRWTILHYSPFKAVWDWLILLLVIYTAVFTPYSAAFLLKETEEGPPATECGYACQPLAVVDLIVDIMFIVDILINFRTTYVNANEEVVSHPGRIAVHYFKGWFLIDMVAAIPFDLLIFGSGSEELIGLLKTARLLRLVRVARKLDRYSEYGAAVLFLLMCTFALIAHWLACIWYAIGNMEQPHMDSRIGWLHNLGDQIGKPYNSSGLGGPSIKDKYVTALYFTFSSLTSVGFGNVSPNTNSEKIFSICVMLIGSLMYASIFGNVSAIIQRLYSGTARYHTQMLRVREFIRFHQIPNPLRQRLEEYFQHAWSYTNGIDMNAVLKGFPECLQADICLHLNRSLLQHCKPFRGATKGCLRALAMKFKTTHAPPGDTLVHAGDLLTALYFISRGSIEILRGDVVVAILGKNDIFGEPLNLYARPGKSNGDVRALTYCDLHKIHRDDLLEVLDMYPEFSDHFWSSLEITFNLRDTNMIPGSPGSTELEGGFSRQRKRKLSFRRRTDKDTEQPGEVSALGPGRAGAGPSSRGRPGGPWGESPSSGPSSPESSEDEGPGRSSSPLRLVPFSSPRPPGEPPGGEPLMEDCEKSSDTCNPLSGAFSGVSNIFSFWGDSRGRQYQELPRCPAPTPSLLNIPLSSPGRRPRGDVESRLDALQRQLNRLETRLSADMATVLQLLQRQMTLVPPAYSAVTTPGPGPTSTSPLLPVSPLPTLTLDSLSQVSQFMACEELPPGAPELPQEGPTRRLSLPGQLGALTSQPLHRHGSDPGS

SMILES | hERG current change (%, negative = inhibition) at 1uM [%]
COCCNC(=O)[C@@]1(C)C=C[C@@H](Cc2ccccc2)N1C(=O)c1ccccc1 | 4.15
CCCn1c(SCC(=O)NC2CCCCC2)nnc1-c1cccnc1 | 16.6
Cc1cc(OCCn2cncn2)ccc1[N+](=O)[O-] | 10.2
O=C(C1CCOCC1)N1CCCC(N2CCN(c3cccc(C(F)(F)F)c3)CC2)C1 (stereo not drawn) | 10.8
CCn1c(SCC(=O)Nc2c(C)n(C)n(-c3ccccc3)c2=O)nc2c1c(=O)n(C)c(=O)n2C | 10.6
O=C(Nc1ccc(Cl)cc1)C1CC=CCC1C(=O)OCC(F)(F)C(F)F (stereo not drawn) | -1.48
COC(=O)c1cc(S(=O)(=O)N2CCN(c3ccc([N+](=O)[O-])cc3)CC2)c[nH]1 | -21.3
Cl.OCCNc1nc(-c2ccccc2)nc2ccccc12 | 6.32
CSc1nc(-c2ccc(Cl)cc2)c(C#N)c(=O)[nH]1 | 4.43
Cc1c(NS(=O)(=O)c2cccc(C(=O)NCc3ccc(Cl)cc3)c2)c(=O)n(-c2ccccc2)n1C | 12.5
N=c1occ(C(=O)c2cc(F)ccc2O)cc1C(=O)NC1CCCCC1 | 8.14
COc1ccc(/C=N/NC(=O)c2csc(-n3nc(C)cc3C(F)(F)F)n2)cc1 | 1.29
CN(CC(=O)Nc1cccc(F)c1)C(=O)CCSc1ccc(F)cc1 | 16.2
CCN(CC)c1ccc(NC(=O)CN2CCN(CC(=O)Nc3ccc(F)cc3)CC2)cc1 | -84.5
Cn1nc(C(=O)Nc2cccc(S(=O)(=O)N3CCOCC3)c2)c2ccccc2c1=O | 9.49
Cc1cccc(NC(=S)NCC(c2ccccc2)N(C)C)c1 (stereo not drawn) | 14.2
COc1ccc(C)cc1NC(=O)CN1CCCN(S(=O)(=O)c2ccc(Br)cc2)CC1 | 7.55
COc1ccc(S(=O)(=O)NCCCCNS(=O)(=O)c2ccc(OC)cc2)cc1 | 16.2
N#Cc1ccsc1NC(=O)CN1CCN(S(=O)(=O)c2cc(Cl)ccc2Cl)CC1 | 14.2
CCCCn1c(N)c(N(CC(C)C)C(=O)C2CCN(S(=O)(=O)c3ccc(C)cc3C)CC2)c(=O)[nH]c1=O | 2.62
OCC[C@H]1C[C@H](O)[C@@H](O)[C@@]2(CCCc3ccccc3O2)O1 | 9.58
NC(=O)C1CCN(S(=O)(=O)c2cccc(S(=O)(=O)N3CCCCC3)c2)CC1 | 10.2

SMILES | hERG current change (%, negative = inhibition) at 1uM [%]
CN(C)c1nc(-c2cccs2)cc(C(F)(F)F)c1C#N | 13
O=C(NCc1c(F)cccc1F)c1cc(COc2c(F)cccc2F)on1 | 9.34
COc1ccccc1NC(=O)N1CCC(c2nc3ccccc3o2)CC1 | 7.38
Cc1cc(Cl)c2oc(C(=O)NC3CCC(O)CC3)c(C)c2c1 (stereo not drawn) | 9.2
COc1cc([N+](=O)[O-])ccc1NC(=O)CCS(=O)(=O)c1ccc2c(c1)n(C)c(=O)c(=O)n2C | 9.09
CC1CCN(CCCOc2ccc(OCc3ccccc3)cc2)CC1.O=C(O)C(=O)O | -14.1
O=C(CCc1ccc(S(=O)(=O)N2CCOCC2)cc1)N/N=C/c1cccc(O)c1 | -3.37
Cc1nn(-c2ccccc2)c(C)c1NC(=O)c1cccs1 | 10.9
Cc1cccc(C(C)(C)C)c1OCCOCCN1CCCC1 | 8.91
COC(=O)c1ccc(COc2ccc(NC(C)=O)cc2)o1 | 9.7
CCOCCn1c(=O)c2c(nc3n2CCCN3Cc2ccccc2)n(C)c1=O | 8.74
Clc1ccc2c(c1)C(N1CCNCC1)Cc1ccccc1S2.O=C(O)/C=C\C(=O)O (stereo not drawn) | -5.92
Cc1c(NC(=O)c2nn3c(c2Br)NC(c2ccccc2)CC3C(F)(F)F)c(=O)n(-c2ccccc2)n1C (stereo not drawn) | 8.76
Cc1ccc(-c2cc(C(=O)N/N=C/c3ccco3)n[nH]2)s1 | -0.673
Nc1nc(N)n(-c2ccccc2)c(=Nc2ccccc2)n1 | 12.4
CNC(=O)c1ccccc1NC(=O)c1ccc(C)c(S(=O)(=O)N2CCCCC2)c1 | -2.21
COc1cccc(CN2CCN(Cc3c(C)nn(C(C)C)c3C)CC2CCO)c1 (stereo not drawn) | 7.3
CC(C)(C)CC(=O)NC(=S)Nc1ccccc1[N+](=O)[O-] | 12.7
C=CCNC(=O)C(C)N1C(=O)c2ccccc2C1=O (stereo not drawn) | 12.2
O=S(=O)(c1ccccc1)[C@@]1(c2ccccc2)C[C@@H]2ON=C(c3cccc(-c4ccccc4)c3)[C@@H]2C1 | 5.04
CCCc1cc(=O)[nH]c(=S)[nH]1 | 17.4
Cc1ccc(CNC(=O)C2CCC(CNS(=O)(=O)c3cccc4cccnc34)CC2)cc1 (stereo not drawn) | 3.3

SMILES | hERG current change (%, negative = inhibition) at 1uM [%]
O=C(COc1ccccc1Cl)NCCNC(=O)c1cccnc1 | 23.9
CCC(c1nnnn1CCc1ccccc1)N(Cc1ccco1)Cc1cc2cccc(C)c2[nH]c1=O (stereo not drawn) | 13.3
CCn1cc(/C=N\NC(=O)c2ccccc2Cl)cn1 | 11.4
Cc1onc(-c2c(Cl)cccc2Cl)c1C(=O)c1ccccc1 | 19.1
COC(=O)CCC(=O)OC1(C)C(=O)C=C2C=C(C3CC3)N(C3CCCC3)C=C2C1=O (stereo not drawn) | 10.1
CCOC(=O)Cn1c(=NC(=O)CSC(C)=O)sc2cc(OC)ccc21 | 15.1
Cc1cc(C)nc(S/C=C/C(=O)c2ccccc2)n1 | 13.7
OCCN=Cc1c(O)[nH]c2ccccc12 | 13.8
CC(=O)Nc1cccc(S(=O)(=O)N2CCCCCC2)c1 | 5.93
C/C(=C\c1cccc(Br)c1)C(=O)c1c(C)cc(C)[nH]c1=O | 13.5
OCCCCc1nccc2c1[nH]c1ccccc12 | 2.06
COc1ccc(C(O)(CCN2CCOCC2)c2ccccc2)cc1 (stereo not drawn) | 10.4
COc1ccc(C)cc1NC(=O)C(OC(=O)c1cccc(S(=O)(=O)N(C)c2ccccc2)c1)c1ccccc1 (stereo not drawn) | 12
COc1ccc(N2CCN(S(=O)(=O)CC34CCC(CC3=O)C4(C)C)CC2)cc1 (stereo not drawn) | 16.8
COc1ccc(NC(=O)COC(=O)c2ccc(C)c(S(=O)(=O)N3CCCCC3)c2)cc1 | -2.31
S=C1NC2(CCCC2)Nc2ccccc21 | 7.5
Oc1c(Br)cc(Br)cc1/C=N/n1c(-c2ccccc2)n[nH]c1=S | 13.7
O=C1C=C(N2CCOCC2)C2(CCCCC2)O1 | 13.2
O=C(CSc1nc2ccccc2c(=O)n1-c1ccc(OC(F)F)cc1)NC1CC1 | -1.7
Cc1ccc(S(=O)(=O)N2CCC(C(=O)NNC(=O)c3ccc(F)cc3)CC2)cc1 | 13.8
Cc1sc2ncnc(SCC(=O)c3ccc(Cl)s3)c2c1C | 14
COc1cc(CNc2ccc(N3CCCC3)cc2)ccc1OCc1ccccc1 | 19.6

SMILES | hERG current change (%, negative = inhibition) at 1uM [%]
CCN(CC(=O)Nc1c(F)cccc1F)C(=O)C1CC(=O)N(c2ccccc2OC)C1 (stereo not drawn) | 7.9
Cc1ccc(NS(=O)(=O)c2ccc(C(=O)NNC(=O)c3ccccc3O)cc2)cc1 | 4.12
CCc1ccc2c(c1)CCCN2C(=O)c1ccccc1C(=O)O | -13
Cc1ccc(S(=O)(=O)N(C)c2nc3ccccc3[nH]c2=S)cc1 | 9.32
Cc1nc2ncccn2c1-c1csc(Nc2cccc(C(=O)O)c2)n1 | 0.117
CCc1cc2c(=O)c(-c3nc4ccccc4n3C)c(COCC(=O)O)oc2cc1OC(=O)C(C)(C)C | 11.4
Cc1ccccc1N(CC(=O)N/N=C/c1ccc(N(C)C)cc1)C(=O)c1ccccc1 | 4.15
CC(=O)Nc1ccc(C(=O)NCCCOC(C)C)cc1 | 8.55
CN1CCC(O)(c2cccs2)C(C(=O)c2cccs2)C1 (stereo not drawn) | 12.4
Nc1nc(N)nc(-c2ccc(Cl)c(Cl)c2)n1 | 3.92
NC(=O)Nc1ccccc1C(=O)NCCc1ccccc1 | 9.22
CN(C(=O)c1cncc(Br)c1)C1C2CC3CC(C2)CC1C3 (stereo not drawn) | 19.9
Cn1c(=O)n(CC(=O)NCc2cccnc2)c2ccccc21 | -7.46
Nc1ccc(C(=O)OCCc2ccccc2)cc1 | 10.6
CCCCC(=O)N(c1ccc(C(=O)O)cc1)c1nc(-c2ccc(Cl)cc2)c(CC)s1 | 5.34
CCOc1cc(/C=N/NC(=O)COc2ccc(Cl)cc2)ccc1OS(=O)(=O)c1ccccc1 | 7.47
COc1ccc(NC(=O)Nc2ccc3nonc3c2)cc1 | 1.49
C=C(C)CNC(=O)CCc1nnc(Cc2cccc(C(F)(F)F)c2)o1 | 15.5
CCOC(=O)c1c(NC(=O)CSc2nnc(-c3cccc(C)c3)n2CC)sc(C(C)=O)c1C | 9.04
CC(=O)N1N=C(c2ccccc2)OC1c1cccnc1 (stereo not drawn) | 11
Cc1cc(C(=O)NN)c(Cl)cc1Cl | 3.26
